Data reported in the supplement of paper PMC7125110.
± gives the standard error. Variants at the background level are over-represented here.

B1: glmS ribozyme (parent)
chain: AUAAAAGCGCCAGAACUACAGAAAUGUAGUUGACGAGGAGGAGGUUUAUCGAAUUUUCGGCGGAUGCCUCCAAA

Experiments:
Settings in all cases: with glucosamine-6-phosphate
glucosamine-6-phosphate [1] = variants of: B1; experiment: self-cleavage kobs at 40 uM GlcN6P; higher = faster cleavage; RNA array
How it was run: (§1)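 Over ~14 h at 37 °C, tiles were imaged as glucosamine-6-phosphate (40 μM to 10 mM) in HEPES/KCl/Mg(OAc)2 buffer flowed across sequenced MiSeq chips. The chips carried barcoded ribozyme variants transcribed in situ by E. coli RNA polymerase and tracked with a hybridised Cy3 probe. After normalisation to baseline and to non-cleaving reference variants, one- or two-exponential decay fits of per-tile medians gave kobs. kcat and KM followed from weighted Michaelis–Menten fits across concentrations.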

glucosamine-6-phosphate [2] = variants of: B1; experiment: self-cleavage kobs at 640 uM GlcN6P; higher = faster cleavage; RNA array
How it was run: as §1

glucosamine-6-phosphate [3] = variants of: B1; experiment: self-cleavage kobs at 160 uM GlcN6P; higher = faster cleavage; RNA array
How it was run: as §1

glucosamine-6-phosphate [4] = variants of: B1; experiment: self-cleavage kobs at 2500 uM GlcN6P; higher = faster cleavage; RNA array
How it was run: as §1

glucosamine-6-phosphate [5] = variants of: B1; experiment: self-cleavage kobs at 10000 uM GlcN6P; higher = faster cleavage; RNA array
How it was run: as §1

| Variant | self-cleavage kobs at 40 uM GlcN6P (glucosamine-6-phosphate [1]) | self-cleavage kobs at 640 uM GlcN6P (glucosamine-6-phosphate [2]) | self-cleavage kobs at 160 uM GlcN6P (glucosamine-6-phosphate [3]) | self-cleavage kobs at 2500 uM GlcN6P (glucosamine-6-phosphate [4]) | self-cleavage kobs at 10000 uM GlcN6P (glucosamine-6-phosphate [5]) |
| --- | --- | --- | --- | --- | --- |
| C11U C50G C68G | 6.75e-05 ± 1.4e-05 s⁻¹ |  |  |  |  |
| C11U C58G | < 1e-05 s⁻¹ |  |  |  |  |
| C11U G29U A39U A64U | < 1e-05 s⁻¹ |  |  |  |  |
| C11U G32C C34U | < 1e-05 s⁻¹ | < 1e-05 s⁻¹ | < 1e-05 s⁻¹ | < 1e-05 s⁻¹ | < 1e-05 s⁻¹ |
| C11U G35U G41C G63A | < 1e-05 s⁻¹ |  |  |  |  |
| C11U G37C G38U | < 1e-05 s⁻¹ |  |  |  |  |
| C11U G38A G41A A42G | < 1e-05 s⁻¹ |  | < 1e-05 s⁻¹ |  |  |
| C11U G38U G40C | < 1e-05 s⁻¹ |  |  | < 1e-05 s⁻¹ |  |
| C11U G40C | < 1e-05 s⁻¹ |  |  |  |  |
| C11U G44A | < 1e-05 s⁻¹ | < 1e-05 s⁻¹ | < 1e-05 s⁻¹ |  |  |
| C11U G44C | < 1e-05 s⁻¹ | < 1e-05 s⁻¹ | < 1e-05 s⁻¹ |  | < 1e-05 s⁻¹ |
| C11U G51C | < 1e-05 s⁻¹ |  |  | < 1e-05 s⁻¹ | < 1e-05 s⁻¹ |
| C11U G62A | < 1e-05 s⁻¹ | < 1e-05 s⁻¹ | < 1e-05 s⁻¹ |  | < 1e-05 s⁻¹ |
| C11U U57G | < 1e-05 s⁻¹ | < 1e-05 s⁻¹ |  |  |  |
| A12C A64G C68A | < 1e-05 s⁻¹ |  |  |  |  |
| A12C A64U | < 1e-05 s⁻¹ |  | < 1e-05 s⁻¹ |  |  |
| A12C C71G | 4.39e-05 ± 8.5e-06 s⁻¹ |  |  |  |  |
| A12C G13U U47A U56A | < 1e-05 s⁻¹ |  |  |  |  |
| A12C G35U | < 1e-05 s⁻¹ |  |  |  |  |
| A12C G37U G66U | < 1e-05 s⁻¹ |  |  |  |  |

| Variant | self-cleavage kobs at 40 uM GlcN6P (glucosamine-6-phosphate [1]) | self-cleavage kobs at 640 uM GlcN6P (glucosamine-6-phosphate [2]) | self-cleavage kobs at 160 uM GlcN6P (glucosamine-6-phosphate [3]) | self-cleavage kobs at 2500 uM GlcN6P (glucosamine-6-phosphate [4]) | self-cleavage kobs at 10000 uM GlcN6P (glucosamine-6-phosphate [5]) |
| --- | --- | --- | --- | --- | --- |
| A12C G38C | < 1e-05 s⁻¹ |  |  |  | < 1e-05 s⁻¹ |
| A12C G62A | < 1e-05 s⁻¹ | < 1e-05 s⁻¹ | < 1e-05 s⁻¹ |  | < 1e-05 s⁻¹ |
| A12C U31A G32C C34A U47A C71U | < 1e-05 s⁻¹ |  |  |  | < 1e-05 s⁻¹ |
| A12C U46G | 8.74e-05 ± 1.3e-05 s⁻¹ | 0.000761 ± 0.00012 s⁻¹ | 0.000221 ± 3.6e-05 s⁻¹ | 0.002 ± 0.00032 s⁻¹ | 0.00278 ± 0.00064 s⁻¹ |
| A12C U49A | < 1e-05 s⁻¹ |  | < 1e-05 s⁻¹ |  |  |
| A12C U49G A52U | < 1e-05 s⁻¹ |  |  |  |  |
| A12G A15G A48U | < 1e-05 s⁻¹ |  |  |  |  |
| A12G A39U G41U A42U A52U C70U | < 1e-05 s⁻¹ |  |  |  |  |
| A12G A52U C61U | < 1e-05 s⁻¹ |  |  |  |  |
| A12G A64U | < 1e-05 s⁻¹ |  | < 1e-05 s⁻¹ |  |  |
| A12G C16A U49A U54A C61U | < 1e-05 s⁻¹ | < 1e-05 s⁻¹ |  |  |  |
| A12G C50U G59U G60A | < 1e-05 s⁻¹ |  |  |  | < 1e-05 s⁻¹ |
| A12G C58G A64U | < 1e-05 s⁻¹ |  |  |  | < 1e-05 s⁻¹ |
| A12G C61U C70U | < 1e-05 s⁻¹ |  |  |  |  |
| A12G C68G | < 1e-05 s⁻¹ |  |  |  |  |
| A12G G29A | < 1e-05 s⁻¹ |  |  |  |  |
| A12G G35U C71A | < 1e-05 s⁻¹ |  |  |  |  |
| A12G G41U A52G U54A | < 1e-05 s⁻¹ |  |  |  |  |
| A12G G43C | < 1e-05 s⁻¹ | < 1e-05 s⁻¹ | < 1e-05 s⁻¹ | < 1e-05 s⁻¹ | < 1e-05 s⁻¹ |
| A12G G44A | < 1e-05 s⁻¹ |  | < 1e-05 s⁻¹ |  |  |

| Variant | self-cleavage kobs at 40 uM GlcN6P (glucosamine-6-phosphate [1]) | self-cleavage kobs at 640 uM GlcN6P (glucosamine-6-phosphate [2]) | self-cleavage kobs at 160 uM GlcN6P (glucosamine-6-phosphate [3]) | self-cleavage kobs at 2500 uM GlcN6P (glucosamine-6-phosphate [4]) | self-cleavage kobs at 10000 uM GlcN6P (glucosamine-6-phosphate [5]) |
| --- | --- | --- | --- | --- | --- |
| A12G U30A | < 1e-05 s⁻¹ |  |  |  |  |
| A12G U31A G32U | < 1e-05 s⁻¹ |  |  |  | 4.08e-05 ± 1.1e-05 s⁻¹ |
| A12G U46A G51C | < 1e-05 s⁻¹ | < 1e-05 s⁻¹ |  | < 1e-05 s⁻¹ | < 1e-05 s⁻¹ |
| A12G U56C | < 1e-05 s⁻¹ |  |  |  |  |
| A12G U57A | < 1e-05 s⁻¹ |  |  |  | 4.27e-05 ± 9.1e-06 s⁻¹ |
| A12U A33U U47G U49G U55G C68U | < 1e-05 s⁻¹ |  |  |  |  |
| A12U A36U C50A U69G | 9.31e-05 ± 2.3e-05 s⁻¹ |  |  |  |  |
| A12U A48G C68A | < 1e-05 s⁻¹ |  |  |  |  |
| A12U A53C | 0.000569 ± 7.4e-05 s⁻¹ |  |  |  |  |
| A12U C16A U45G C71G | < 1e-05 s⁻¹ |  |  |  |  |
| A12U C34U G41U G66C | < 1e-05 s⁻¹ |  |  | < 1e-05 s⁻¹ | < 1e-05 s⁻¹ |
| A12U C50G | 4.38e-05 ± 1.4e-05 s⁻¹ |  | 0.000613 ± 0.00026 s⁻¹ | 6.46e-05 ± 2.2e-05 s⁻¹ | 0.000147 ± 4.2e-05 s⁻¹ |
| A12U C61G | < 1e-05 s⁻¹ |  |  |  |  |
| A12U C70A | 8.79e-05 ± 1.1e-05 s⁻¹ | 0.00047 ± 5.2e-05 s⁻¹ | 0.000177 ± 2.9e-05 s⁻¹ | 0.00049 ± 7e-05 s⁻¹ | 0.00179 ± 0.00036 s⁻¹ |
| A12U C71U | 0.00207 ± 0.00018 s⁻¹ | 0.0214 ± 0.0049 s⁻¹ | 0.00891 ± 0.0017 s⁻¹ | 0.0611 ± 0.02 s⁻¹ | 0.0826 ± 0.025 s⁻¹ |
| A12U G29A | 0.00084 ± 0.00025 s⁻¹ | 0.00253 ± 0.00054 s⁻¹ | 0.000905 ± 0.0002 s⁻¹ |  |  |
| A12U G29A G41A C50A C67A | < 1e-05 s⁻¹ |  |  |  |  |
| A12U G40C A52U U56C C68A | < 1e-05 s⁻¹ |  |  |  | < 1e-05 s⁻¹ |
| A12U G44C C68U | < 1e-05 s⁻¹ |  |  |  |  |
